The source of these data is article PMC4336329 (PLoS ONE, 2015).

In all, about 310,000 compounds went through this assay and about 14,000 (4.5%) showed an effect of 50% or more. The effect is printed as a negative number. This is one part of the list.
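Note: peak tail current of the secondary pulse compared with the same well before compound.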

human ether-à-go-go-related gene (hERG) potassium channel, sequence (Q12809 whole entry, looked up): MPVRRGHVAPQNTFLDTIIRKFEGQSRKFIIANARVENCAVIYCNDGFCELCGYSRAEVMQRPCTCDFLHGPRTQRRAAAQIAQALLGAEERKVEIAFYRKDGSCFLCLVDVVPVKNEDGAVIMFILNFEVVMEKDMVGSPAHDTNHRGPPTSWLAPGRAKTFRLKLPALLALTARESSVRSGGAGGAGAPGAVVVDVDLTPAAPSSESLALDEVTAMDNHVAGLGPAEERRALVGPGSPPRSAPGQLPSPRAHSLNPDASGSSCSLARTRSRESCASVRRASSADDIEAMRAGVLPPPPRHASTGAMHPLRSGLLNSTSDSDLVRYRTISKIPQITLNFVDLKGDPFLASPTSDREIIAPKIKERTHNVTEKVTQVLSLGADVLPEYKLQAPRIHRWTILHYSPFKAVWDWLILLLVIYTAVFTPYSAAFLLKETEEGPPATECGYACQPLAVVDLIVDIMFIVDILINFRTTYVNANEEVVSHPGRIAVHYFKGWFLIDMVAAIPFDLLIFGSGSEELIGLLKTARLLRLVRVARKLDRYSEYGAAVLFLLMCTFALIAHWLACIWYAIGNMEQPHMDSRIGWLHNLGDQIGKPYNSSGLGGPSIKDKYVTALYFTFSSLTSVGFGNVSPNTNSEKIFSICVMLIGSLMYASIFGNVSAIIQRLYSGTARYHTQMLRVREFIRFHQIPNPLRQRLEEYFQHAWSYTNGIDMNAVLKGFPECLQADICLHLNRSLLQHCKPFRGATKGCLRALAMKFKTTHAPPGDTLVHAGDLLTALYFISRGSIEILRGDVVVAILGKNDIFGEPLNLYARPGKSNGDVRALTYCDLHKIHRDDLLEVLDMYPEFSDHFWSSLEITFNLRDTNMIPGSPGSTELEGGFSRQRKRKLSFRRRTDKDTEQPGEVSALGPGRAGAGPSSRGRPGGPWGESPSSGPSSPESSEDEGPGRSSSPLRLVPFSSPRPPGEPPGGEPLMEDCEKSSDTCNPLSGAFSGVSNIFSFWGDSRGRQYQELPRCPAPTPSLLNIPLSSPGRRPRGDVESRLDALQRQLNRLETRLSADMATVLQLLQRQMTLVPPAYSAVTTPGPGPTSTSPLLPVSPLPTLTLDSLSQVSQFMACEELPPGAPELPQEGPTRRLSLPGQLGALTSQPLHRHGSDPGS

This assay addresses human ether-à-go-go-related gene (hERG) potassium channel (human, UniProt Q12809). The experiment in a line: primary screen, population patch clamp on CHO cells stably expressing hERG.
As for `C/C(CC(=O)Nc1ccc(C)c(Cl)c1)=N\NC(=O)C1CCCCC1`, the “hERG current change (%, negative = inhibition) at 10uM” value was 7.46%.

In the case of `O=C1CCc2cc(S(=O)(=O)NCc3ccc(F)cc3)cc3c2N1CCC3`, the “hERG current change (%, negative = inhibition) at 10uM” value is recorded as -10.8%. Then `COc1ccc(OCCOc2ccc(S(=O)(=O)N3CCCC3)cc2C(N)=O)cc1`, with -9.45%; and `CCOC(=O)c1sc(NC(=O)c2c(OC)cccc2OC)nc1C`, with -0.673%. Then `CC(C)CC(=O)Nc1ccc2c(c1)oc1ccccc12`, with 3.1%.

As for `C=CCSc1n[nH]c(-c2ccc(OCCCC)cc2)n1`, the “hERG current change (%, negative = inhibition) at 10uM” value is -7.32%.

Turning to `COc1ccc(Cl)cc1C(=O)OCC(=O)N(C)CC(=O)Nc1ccc(F)cc1`, the “hERG current change (%, negative = inhibition) at 10uM” value was -13.1%. Then `CCc1ccc(NC(=O)[C@H](Cc2ccccc2)NC(=O)C2CCN(C(=O)[C@@H](N)CC(C)C)CC2)cc1`, with -6.14%; and `COCCCn1c(SCC(=O)N2CCc3ccccc32)nnc1-c1ccco1`, with -31.6%.

`COc1cccc(CNC(=O)CN2c3cccc4cccc(c34)S2(=O)=O)c1`: the “hERG current change (%, negative = inhibition) at 10uM” value is listed as -10.2%.

As for `O=C(COC(=O)c1cccc(S(=O)(=O)N2CCN(c3ccccc3)CC2)c1)NCc1ccco1`, the “hERG current change (%, negative = inhibition) at 10uM” value was determined as 0.98%. Then `O=C(CCN1C(=O)/C(=C/c2ccccc2Cl)SC1=S)NN1CCOCC1`, with 6.46%; and `CCc1ccc(C(=O)COC(=O)c2cccs2)cc1`, with 1.91%. Then `COc1ccc(C(=O)NCc2nnc(SCC(=O)Nc3cccc(OC)c3)o2)cc1`, with -1.25%.

`CN(CC(=O)N1CCCCCC1)S(=O)(=O)c1ccc(Br)s1`: the “hERG current change (%, negative = inhibition) at 10uM” value was -9.92%. The figure for `C/C(=N\NC(=O)c1c(Br)c(C)nn1C)c1ccc(NC(=O)C(C)Oc2ccc(Cl)cc2C)cc1` (stereo not drawn) is -3.11%; for `O=C(O)CSc1cccc[n+]1[O-]` it is -11.1%. Then `Cc1ccc2nc(C)c3c(c2c1)OC(C(C)(Cl)Br)C3` (stereo not drawn), with -16.5%; and `CCOC(=O)c1cc2c(C)nn(-c3ccccc3)c2s1`, with -0.348%; and `Cc1ccccc1N1CCN(Cc2nc(Cc3ccccc3)no2)CC1`, with 9.18%. Consider `COc1ccc2nc(NC(=O)CS(=O)(=O)Cc3ccccc3)sc2c1`, for which the “hERG current change (%, negative = inhibition) at 10uM” value is 23.2%. Turning to `CCC(C)NS(=O)(=O)c1ccc(OCC(=O)N2CCC(C)CC2)cc1` (stereo not drawn), the “hERG current change (%, negative = inhibition) at 10uM” value is recorded as -5.19%.

As for `COC(=O)CCC(=O)OC1(C)C(=O)C2=CN(CCCOC(C)C)C(c3ccc(OC)cc3)=CC2=C(Br)C1=O` (stereo not drawn), the “hERG current change (%, negative = inhibition) at 10uM” value is -22.7%. Take `CCn1c(=NC(=O)c2ccc(S(=O)(=O)N3CCOCC3)cc2)sc2cccc(OC)c21`: the “hERG current change (%, negative = inhibition) at 10uM” value was found to be 5.72%.
